Experimental findings from publication PMC11947619, “Molecular mechanism of Mad2 conformational conversion promoted by the Mad2‐interaction motif of Cdc20” (Protein Science : A Publication of the Protein Society, 2025) are described below.

Sequences and labels used below:
B1: C-Mad2^WT:Cdc20^MIM (complex)
chain: not shown
peptide: FDVEEAKILRLSGKPQNAPEGYQNRLKVLY
notes: Mad2, human, wild type, as m1, in the closed state; also called C-Mad2:Cdc20^MIM
B2: C-Mad2^WT:Mad1^MIM (complex)
chain: not shown
peptide: RALQGDYDQSRTKVLHMSLNPT
notes: Mad2, human, wild type, as m1, in the closed state; Formed beforehand and used as the partner of O-Mad2^WT; also called C-Mad2:Mad1^MIM; source: unlabeled

Data set [1] concerns the molecule itself. As to the kind of experiment: SEC-MALS; 100 μL Mad2 sample at 300 μM on Superdex 75 10/300 GL increase, 4 °C, 20 mM HEPES pH 7.0, 100 mM NaCl, 1 mM TCEP, 5% D2O, 0.5 mL/min. In general terms: Size exclusion chromatography separates by hydrodynamic size, large species first.
Data set [2] addresses B1. In words: NMR (2D 1H,15N HSQC before and after adding the partner); 300 μM samples, 950 MHz, 25°C, 20 mM HEPES pH 7.0, 100 mM NaCl, 1 mM TCEP, 5% D2O; in dimeric samples only one monomer isotopically labeled; Cdc20^MIM-123-152 at two-fold molar excess. The note with it: both partners purified.
Data set [3] has as its target B2. In words: SEC-MALS; 100 μL Mad2 sample at 300 μM on Superdex 75 10/300 GL increase, 4 °C, 20 mM HEPES pH 7.0, 100 mM NaCl, 1 mM TCEP, 5% D2O, 0.5 mL/min. The note with it: both partners purified.

By stoichiometry N is commonly meant the number of molecules, sites or subunits per partner or assembly. In the case of B1, the “stoichiometry N” value in data set [1] was determined as 2.

On to B2, for which, in data set [2], the binding result is “binds”.

B3: human wild-type Mad2 (natural protein)
chain: not shown
notes: Mad2, human, wild type; limits follow from Mad2^Δβ7/β8 ([…]), made from this construct by deleting […]; Tag is followed by a TEV site; 15N-labelled for NMR; Expressed and kept cold as the open state (O-Mad2); Construct described in Fischer et al. 2022; also called Mad2^WT; O-Mad2^WT; source: E. coli BL21 Star (DE3) with pRARE, purified
Turning to B3, in data set [3], the binding result is “binds”.
